The results in this text go back to patent US20090325873A1, “HUMAN GLP-1 MIMETIBODIES, COMPOSITIONS, METHODS AND USES” (CENTOCOR, INC., priority 2006, published 2009).

Data set [1] has as its system wild type mice. The data set can be described thus: Glucose tolerance test (ipGTT) in wild type mice. Type of data set: in vivo. As to conditions: single iv GLP-1 MMB 1 mg/kg, exendin-4 0.07 mg/kg.
The subject of data set [2] is INS-1E cells. The data set can be described thus: Insulin secretion assay in INS-1E cells. Type of data set: cell-based, rat. As to conditions: 25 nM, KRBH with 6.5 mM glucose, two hours. Here is the method:
A further insulin secretion assay was developed to measure functional in vitro activity of the GLP-1MMB of SEQ ID NO 4. • Cell culture: INS-1E cells were cultured in RPMI 1640/10% FBS/1% L-glutamine/1% Sodium Pyruvate/1% Non-essential Amino Acids/50 μM β-Mercaptoethanol and maintained at 37° C. in a humidified incubator with 5% CO2. Data was analyzed in GraphPad PRISM, version 4.03. • Insulin Secretion Assay: INS-1E cells were plated at 100,000 cells/well in 96-well plates (Costar 3610) and allowed to recover 4 days in normal growth media. The cells were washed twice and 0.1 ml of KRBH buffer/3 mM glucose was added. The cells were allowed to equilibrate in this buffer for 2 hours. The media was removed and 0.12 ml of GLP-1MMB of SEQ ID NO 4 in KRBH with 6.5 mM glucose was added per well. Twenty microliters of supernatant was removed per well for the T=0 time point. The cells were incubated for two hours at 37° C. at 5% CO2 and twenty microliters of supernatant were removed per well. Supernatants were frozen at −20° C. until the insulin ELISA was performed. Insulin concentrations were determined using a the Ultra Sensitive Rat Insulin ELISA kit (Crystal Chem). • Results: The data was plotted as the amount of insulin secreted at each concentration of GLP-1MMB of SEQ ID NO 4 (FIG. 19).

Data set [3] in a line: Pharmacokinetics in cynomolgus monkeys, single iv dose. Type of data set: in vivo. As to conditions: 1 mg/kg, mean. Here is the method: Pharmacokinetics in monkeys: Cynomolgus monkeys were dosed intravenously with GLP-1MMB of SEQ ID NO 4 (1.0 mg/kg, lot #8833013) at Diabetes Research Institute, University of Miami (2). The monkeys were chemically restrained with ketamine HCl (100 mg/mL, 10 mg/kg) prior to dosing and blood collections. GLP-1MMB of SEQ ID NO 4 was administered at a dose volume of 2.2 mL/kg at a rate of 1 mL/minute. Approximately 2 mL of blood was collected at various time points following dosing in sodium citrate (3.8%) containing protease inhibitors (Roche Complete EDTA free, Roche Applied Science, Indianapolis, Ind.) and DPP4 inhibitors (Linco, St. Charles, Mo.). Plasma was isolated and stored at −80° until samples could be analyzed. GLP-1MMB of SEQ ID NO 4 concentrations in the plasma was measured as described above.
(§1) Data analysis: Non-compartmental analysis (NCA) was employed to calculate the pharmacokinetic parameters of GLP-1MMB of SEQ ID NO 4 (WinNonlin, Version 5.1, Pharsight Corporation, Mountain View, Calif.). The maximum serum concentration, Cmax and the time to reach Cmax (Tmax), were obtained from inspection of the serum concentration vs. time profiles. The area under the concentration curve (AUC) from time 0 to the last time point with quantifiable levels of GLP-1MMB of SEQ ID NO 4 was calculated (AUC (0-7d) for rat, AUC (0-21d) for monkey), as well as the AUC from time 0 to infinity. The AUC values were obtained by linear trapezoidal integration. The terminal rate constant (λz) was determined by least-squares regression analysis of the log-linear portion of the terminal phase. The terminal half-life, t½, was calculated from the ratio of 0.693 and λz.

The nature of data set [4]: Pharmacokinetics in rats, single sc or iv dose. Type of data set: in vivo. Conditions: SD rats, 3 mg/kg, mean. Here is the method:
Pharmacokinetics in rats: Sprague-Dawley-derived rats were treated with a single subcutaneous or intravenous dose of GLP-1 MMB of SEQ ID NO 4 (3.0 mg/kg, lot #8833173) (1). Approximately 300 μl of blood were collected at various times following dosing in sodium citrate (3.8%) containing protease inhibitors (Roche Complete EDTA free, Roche Applied Science, Indianapolis, Ind.) and DPP4 inhibitors (Linco, St. Charles, Mo.). Plasma was isolated and stored at −80° until samples could be analyzed. The concentration of intact GLP-1 MMB of SEQ ID NO 4 was measured using a mesoscale discovery (MSD) technology. Briefly, plasma samples were serially diluted by BioMek Fx for a total of 4 dilutions, neat, 1:8, 1:64 and 1:512. Identical standard curves in neat plasma were included on each plate. GLP-1MMB of SEQ ID NO 4 was captured on MSD plates by biotinylated monoclonal antibody (CNTO1626) designed to detect intact N-terminus of GLP-1MMB of SEQ ID NO 4. Ruthenium labeled monoclonal antibody recognizing linker region on GLP-1MMB of SEQ ID NO 4 (CNTO712) were added for detection and the luminescence responses were determined using the MSD sector imager 6000 reader. GLP-1MMB of SEQ ID NO 4 level was calculated using sigmoidal dose-response curve (GraphPad PRISM).
as §1

The subject of data set [5] is wild type mice. The data set can be described thus: Food intake in wild type mice. Type of data set: in vivo. As to conditions: single iv GLP-1 MMB 1 mg/kg, exendin-4 0.07 mg/kg.
Data set [6] relates to GLP-1R−/− mice. The data set can be described thus: Gastric emptying in GLP-1R−/− mice. Type of data set: in vivo. Conditions: iv GLP-1 MMB 1 mg/kg, exendin-4 0.07 mg/kg. Here is the method:
Materials/Methods: Animals: Male GLP-1R−/− and age matched wild type mice were randomized into three treatment groups (n=5) based on body weight and fasting blood glucose. […] The next morning mice were re-fed for 1 h, food intake was recorded and the mice were deprived of food for the rest of the study. Mice were dosed intravenously as discussed above. Two hours post-dosing mice were euthanized. The stomach was exposed by laparotomy, ligated at both the pylorus and cardia and removed. The stomach content wet weight was measured. Equation 1 was used to calculate the percent of food remaining in the stomach.
(Stomach Content Wet Weight(g)/Food Intake(g))*100 Equation (1)

Values joined by “and” are separate entries in the source; they are usually repeats but may differ in a detail not shown here. Identical values can stand only once.

A word on the Cmax: it is the highest concentration seen after dosing. As a reminder, the Vz is a proportionality between amount in the body and measured concentration, not a real space. A higher Vz goes with extensive tissue distribution. The t½ is the time needed for the level to fall by half in the phase considered. The term Tmax denotes the time from dosing to the highest level.

B1: GLP-1 MMB of SEQ ID NO 4: GLP-1 mimetibody of SEQ ID NO 4 (protein, listed as Homo sapiens)
chain: HSEGTFTSDVSSYLEGQAAKEFIEWLVKGRGGGSGGGSGTLVTNSS[human IgG4 Fc with S228P F234A L235A (EU numbers) omitted]
With B1, the “area under the curve (AUC) of the ipGTT” value in data set [1] is recorded as “statistically significant reduction in the AUC”. Besides, the “amount of insulin secreted into the supernatant” value in data set [2] was “significantly increased the amount of insulin secreted”. Moreover, in data set [3], the “AUC(0-21)” value came to 41.92 µg·days/mL, the AUCinf came out at 42.05 µg·days/mL, the Cl came to 1.034 mL/h/kg and the Cmax came to 40090 ng/mL. In data set [3], this molecule had a Vss of 0.05018 L/kg and a distribution volume (Vz) of 0.1054 L/kg. In addition, the t½ in data set [3] (listed as GLP-1MMB) was 69.6 h. In addition, in data set [3] (listed as GLP-1MMB of SEQ ID NO 4, 1 mg/kg), the t½ came to 70.3 h. In data set [4] (iv), the “AUC (0-7 d)” value amounted to 23.61 µg·days/mL, the AUCinf is 23.86 µg·days/mL, the Cl amounted to 5.2458 mL/h/kg and the Cmax is 53910 ng/mL. Further, in data set [4] (iv), the Vss worked out at 0.11007 L/kg; the t½ is 36 h and 35.5 h. Moreover, in data set [4] (sc), the “AUC (0-7 d)” value was 5.04 µg·days/mL, the AUCinf amounted to 5.20 µg·days/mL, the peak concentration (Cmax) was found to be 2290 ng/mL and the Tmax came to 19.9 h. The t½ in data set [4] (sc) is 40.8 h and 41.5 h. In addition, the “24 hour cumulative food intake vs CNTO1996” value in data set [5] is listed as “statistically significant reduction in food intake”. Moreover, the “gastric emptying 2 h after dosing” value in data set [6] was “no effect on gastric emptying”.
